Source: the supplement of paper PMC8728848
The list shows a part of the results.

Key:
Experiment in all cases: glycan array binding signal (z-score within array); higher = stronger binding
Settings in all cases: glycan notation: IUPAC condensed, linker removed
[1] = molecular target: Neu5Ac(a2-8)Neu5Ac(a2-3)Gal(b1-4)Glc
Procedure, shortened: (§1)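 From the Consortium for Functional Glycomics database, 3228 arrays were curated, keeping only those whose protein sequence was available. Binding is given as a within-array Z-score averaged across arrays sharing a protein sequence and across linkers. Negative Z-scores can be read as non-binding.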

[2] = molecular target: Neu5Ac(a2-8)Neu5Ac(a2-3)Gal(b1-4)GlcNAc
Procedure, shortened: as §1

[3] = molecular target: Neu5Ac(a2-8)Neu5Ac(a2-3)[Gal(b1-3)GalNAc(b1-4)]Gal(b1-4)Glc
Procedure, shortened: as §1

[4] = molecular target: Neu5Ac(a2-8)Neu5Ac(a2-3)[GalNAc(b1-4)]Gal(b1-4)Glc
Procedure, shortened: as §1

[5] = molecular target: Neu5Ac(a2-8)Neu5Ac(a2-8)Neu5Ac
Procedure, shortened: as §1

[6] = molecular target: Neu5Ac(a2-8)Neu5Ac(a2-8)Neu5Ac(a2-3)Gal(b1-4)Glc
Procedure, shortened: as §1

[7] = molecular target: Neu5Ac(a2-8)Neu5Ac(a2-8)Neu5Ac(a2-3)[Gal(b1-3)GalNAc(b1-4)]Gal(b1-4)Glc
Procedure, shortened: as §1

[8] = molecular target: Neu5Ac(a2-8)Neu5Ac(a2-8)Neu5Ac(a2-3)[GalNAc(b1-4)]Gal(b1-4)Glc
Procedure, shortened: as §1

[9] = molecular target: Neu5Ac(a2-8)Neu5Ac(a2-8)Neu5Ac(a2-8)Neu5Ac(a2-3)[GalNAc(b1-4)]Gal(b1-4)Glc
Procedure, shortened: as §1

[10] = molecular target: Neu5Ac(a2-8)Neu5Gc(a2-3)Gal(b1-4)GlcNAc
Procedure, shortened: as §1

[11] = molecular target: Neu5Ac(b2-6)Gal(b1-4)GlcNAc
Procedure, shortened: as §1

Neu5Ac(b2-6)GalNAc = molecular target: Neu5Ac(b2-6)GalNAc
Procedure, shortened: as §1

[12] = molecular target: Neu5Ac9Ac(a2-3)Gal(b1-3)GlcNAc
Procedure, shortened: as §1

[13] = molecular target: Neu5Ac9Ac(a2-3)Gal(b1-4)GlcNAc
Procedure, shortened: as §1

[14] = molecular target: Neu5Ac9Ac(a2-6)Gal(b1-4)GlcNAc
Procedure, shortened: as §1

[15] = molecular target: Neu5Gc(a2-3)Gal(b1-3)GlcNAc
Procedure, shortened: as §1

[16] = molecular target: Neu5Gc(a2-3)Gal(b1-3)[Fuc(a1-4)]GlcNAc
Procedure, shortened: as §1

Neu5Gc(a2-3)Gal(b1-4)Glc = molecular target: Neu5Gc(a2-3)Gal(b1-4)Glc
Procedure, shortened: as §1

[17] = molecular target: Neu5Gc(a2-3)Gal(b1-4)GlcNAc
Procedure, shortened: as §1

[18] = molecular target: Neu5Gc(a2-3)Gal(b1-4)GlcNAc(b1-3)Gal(b1-4)GlcNAc(b1-2)Man(a1-3)[Neu5Gc(a2-3)Gal(b1-4)GlcNAc(b1-3)Gal(b1-4)GlcNAc(b1-2)Man(a1-6)]Man(b1-4)GlcNAc(b1-4)GlcNAc
Procedure, shortened: as §1

[19] = molecular target: Neu5Gc(a2-3)Gal(b1-4)[Fuc(a1-3)]GlcNAc
Procedure, shortened: as §1

[20] = molecular target: Neu5Gc(a2-6)Gal(b1-4)GlcNAc
Procedure, shortened: as §1

Neu5Gc(a2-6)GalNAc = molecular target: Neu5Gc(a2-6)GalNAc
Procedure, shortened: as §1

[21] = molecular target: Neu5Gc(a2-8)Neu5Ac(a2-3)Gal(b1-4)GlcNAc
Procedure, shortened: as §1

[22] = molecular target: Neu5Gc(a2-8)Neu5Gc(a2-3)Gal(b1-4)GlcNAc
Procedure, shortened: as §1

[23] = molecular target: Neu5Gc(a2-8)Neu5Gc(a2-3)Gal(b1-4)GlcNAc(b1-3)Gal(b1-4)GlcNAc
Procedure, shortened: as §1

[24] = molecular target: Neu5Gc(a2-8)Neu5Gc(a2-6)Gal(b1-4)GlcNAc
Procedure, shortened: as §1

[25] = molecular target: Neu5Gc(b2-6)Gal(b1-4)GlcNAc
Procedure, shortened: as §1

B1: rCNL (Clitocybe nebularis), B2ZRS9 (protein)
chain: SITPGTYNITNVAYTNRLIDLTGSNPAENTLIIGHHLNKTPSGYGNQQWTLVQLPHTTIYTMQAVNPQSYVRVRDDNLVDGAALVGSQQPTPVSIESAGNSGQFRIKIPNLGLALTLPSDANSTPIVLGEVDETSTNQLWAFESVSAV
glycan array binding signal (z-score) [1]: -0.315
glycan array binding signal (z-score) [2]: -0.225
glycan array binding signal (z-score) [3]: -0.224
glycan array binding signal (z-score) [4]: -0.134
glycan array binding signal (z-score) [5]: -0.31
glycan array binding signal (z-score) [6]: -0.3
glycan array binding signal (z-score) [7]: -0.224
glycan array binding signal (z-score) [8]: -0.044
glycan array binding signal (z-score) [9]: -0.044
glycan array binding signal (z-score) [10]: -0.227
glycan array binding signal (z-score) [11]: -0.31
glycan array binding signal (z-score) (Neu5Ac(b2-6)GalNAc): -0.309
glycan array binding signal (z-score) [12]: -0.299
glycan array binding signal (z-score) [13]: -0.278
glycan array binding signal (z-score) [14]: 0.312
glycan array binding signal (z-score) [15]: -0.302
glycan array binding signal (z-score) [16]: -0.299
glycan array binding signal (z-score) (Neu5Gc(a2-3)Gal(b1-4)Glc): -0.302
glycan array binding signal (z-score) [17]: -0.313
glycan array binding signal (z-score) [18]: -0.209
glycan array binding signal (z-score) [19]: -0.289
glycan array binding signal (z-score) [20]: -0.285
glycan array binding signal (z-score) (Neu5Gc(a2-6)GalNAc): -0.296
glycan array binding signal (z-score) [21]: -0.227
glycan array binding signal (z-score) [22]: -0.231
glycan array binding signal (z-score) [23]: -0.222
glycan array binding signal (z-score) [24]: -0.225
glycan array binding signal (z-score) [25]: -0.297
